For 39 molecules, transfection efficiency results are on record in the supplement of paper PMC7238544.

Structures can show the parent of a compound that is named as a salt. ± gives the standard deviation of the averaged measurements. This is one part of the list.
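Also: compounds added 30 min before Lipofectamine 3000 lipoplex transfection, triplicate means relative to DMSO vehicle wells on the same plate, luciferase RLU normalized to BCA total protein.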

The experiment has as its system hAMSC donor 2. The experiment is described as follows: transfection efficiency (EGFP+ cells / Hoechst count) fold change vs vehicle control (ratio); hAMSC are human adipose-derived mesenchymal stem cells given an EGFP-luciferase plasmid by lipofection; higher = enhanced transfection. As to conditions: priming compound concentration 100 µM.
As for `O=C(O)c1cc(=O)c2c(OCC(O)COc3cccc4oc(C(=O)O)cc(=O)c34)cccc2o1` [Cromolyn sodium], the transfection efficiency is 0.866 ± 0.11.

As for `CC(C)C[C@@H](NC(=O)OCC1c2ccccc2-c2ccccc21)C(=O)O` [N-Fmoc-D-leucine], the transfection efficiency was 0.834 ± 0.044.

`CN1CCN(C2=Nc3cc(Cl)ccc3Nc3ccccc32)CC1` [Clozapine]: the transfection efficiency turned out to be 0.833 ± 0.27.

For `CN(C)CC[C@@H](c1ccc(Br)cc1)c1ccccn1` [Dexbrompheniramine maleate], the transfection efficiency stood at 1.02 ± 0.15.

With `CNCCCC12CCC(c3ccccc31)c1ccccc12` [Maprotiline hydrochloride], the transfection efficiency amounted to 0.477 ± 0.2.

Take `CC12CC3CC(C)(C1)CC(N)(C3)C2` [Memantine hydrochloride]: the transfection efficiency was determined as 0.797 ± 0.056.

`COc1cc(OC)c(C(=O)CCCN2CCCC2)c(OC)c1` [Buflomedil hydrochloride]: the transfection efficiency stood at 0.774 ± 0.14.

As for `CC(=O)CC(c1ccccc1)c1c(O)c2ccccc2oc1=O` (centres undefined) [Warfarin sodium], the transfection efficiency amounted to 0.89 ± 0.088.

Turning to `CN(C)CCCN1c2ccccc2CCc2ccccc21` [Imipramine hydrochloride], the transfection efficiency came to 0.795 ± 0.28.

`C[C@@H]1C[C@H]2[C@@H]3CCC4=CC(=O)C=C[C@]4(C)[C@@]3(F)[C@@H](O)C[C@]2(C)[C@@]1(O)C(=O)COP(=O)(O)O` [Dexamethasone sodium phosphate]: the transfection efficiency was determined as 1.24 ± 0.036.

Take `Cc1ccc(C)c(OCCCC(C)(C)C(=O)O)c1` [Gemfibrozil]: the transfection efficiency was found to be 0.843 ± 0.3.

For the molecule `O=C1CCC(N2C(=O)c3ccccc3C2=O)C(=O)N1` (centres undefined) [Thalidomide], the transfection efficiency came to 0.845 ± 0.1.

In the case of `O=C1CCc2cc(OCCCCc3nnnn3C3CCCCC3)ccc2N1` [Cilostazol], the transfection efficiency turned out to be 0.747 ± 0.15.

For `CO/N=C(\C(=O)N[C@@H]1C(=O)N2C(C(=O)O)=C(COC(N)=O)CS[C@H]12)c1ccco1` [Cefuroxime], the transfection efficiency was 0.681 ± 0.25.

As for `CNCC(O)c1ccc(O)c(O)c1` (centres undefined) [Racepinephrine], the transfection efficiency amounted to 0.516 ± 0.1.

As to `Clc1ccc2c(c1)C(N1CCNCC1)=Nc1ccccc1O2` [Amoxapine], the transfection efficiency was determined as 0.

Take `CC[C@H]1OC(=O)[C@H](C)[C@@H](O[C@H]2C[C@@](C)(OC)[C@@H](O)[C@H](C)O2)[C@H](C)[C@@H](O[C@@H]2O[C@H](C)C[C@H](N(C)C)[C@H]2O)[C@](C)(O)C[C@@H](C)C(=O)[C@H](C)[C@@H](O)[C@]1(C)O` [Erythromycin]: the transfection efficiency worked out at 0.648 ± 0.2.

With `CO[C@H]1/C=C/O[C@@]2(C)Oc3c(C)c(O)c4c(O)c(c(/C=N/N5CCN(C)CC5)c(O)c4c3C2=O)NC(=O)/C(C)=C\C=C\[C@H](C)[C@H](O)[C@@H](C)[C@@H](O)[C@@H](C)[C@H](OC(C)=O)[C@@H]1C` [Rifampicin], the transfection efficiency is 0.448 ± 0.039.

As for `COC1=CC(=O)C[C@@H](C)[C@]12Oc1c(Cl)c(OC)cc(OC)c1C2=O` [Griseofulvin], the transfection efficiency turned out to be 0.794 ± 0.063.

Consider `NC(=O)c1cnccn1` [Pyrazinamide], for which the transfection efficiency is 0.803 ± 0.2.

Regarding `Cc1cccc(Nc2ccccc2C(=O)O)c1C` [Mefenamic acid], the transfection efficiency was determined as 1.01 ± 0.18.

`CCC1(c2ccccc2)C(=O)NCNC1=O` [Primidone]: the transfection efficiency is 0.816 ± 0.1.

On to `CC(C)OC(=O)C(C)(C)Oc1ccc(C(=O)c2ccc(Cl)cc2)cc1` [Fenofibrate], for which the transfection efficiency came out at 0.346 ± 0.016.

Take `CC(=O)OCC(=O)[C@@]12OC(C)(C)O[C@@H]1C[C@H]1[C@@H]3C[C@H](F)C4=CC(=O)C=C[C@]4(C)[C@@]3(F)[C@@H](O)C[C@@]12C` [Fluocinolone acetonide 21-acetate]: the transfection efficiency stood at 2.81 ± 0.57.

Regarding `CCN(CC)CCOC(=O)C1(C2CCCCC2)CCCCC1` [Dicyclomine hydrochloride], the transfection efficiency came to 0.663 ± 0.077.

For `CCCC(=O)Nc1ccc(OCC(O)CNC(C)C)c(C(C)=O)c1` (centres undefined) [Acebutolol hydrochloride], the transfection efficiency worked out at 0.844 ± 0.085.

As to `CN1CCN(CCCN2c3ccccc3Sc3ccc(Cl)cc32)CC1` [Prochlorperazine maleate], the transfection efficiency came to 0.0333 ± 0.058.

On to `CO/N=C(\C(=O)N[C@@H]1C(=O)N2C(C(=O)O)=C(COC(C)=O)CS[C@H]12)c1csc(N)n1` [Cefotaxime sodium], for which the transfection efficiency is 1.19 ± 0.049.

As to `CC(C)C(=O)Nc1ccc([N+](=O)[O-])c(C(F)(F)F)c1` [Flutamide], the transfection efficiency was 0.874 ± 0.21.

On to `Clc1ccc(CO/N=C(\Cn2ccnc2)c2ccc(Cl)cc2Cl)c(Cl)c1` [Oxiconazole nitrate], for which the transfection efficiency worked out at 0.591 ± 0.51.

Turning to `CC1Cc2ccccc2N1NC(=O)c1ccc(Cl)c(S(N)(=O)=O)c1` (centres undefined) [Indapamide], the transfection efficiency was found to be 0.799 ± 0.26.

On to `C[C@@H]1C/C=C/C=C/C=C/C=C/[C@H](O[C@@H]2O[C@H](C)[C@@H](O)[C@H](N)[C@@H]2O)C[C@@H]2O[C@](O)(C[C@@H](O)C[C@H]3O[C@@H]3/C=C/C(=O)O1)C[C@H](O)[C@H]2C(=O)O` [Natamycin], for which the transfection efficiency turned out to be 0.419 ± 0.07.

Regarding `CNCC[C@H](Oc1cccc2ccccc12)c1cccs1` [Duloxetine hydrochloride], the transfection efficiency stood at 0.238 ± 0.28.

Consider `CN/C(=N\CCSCc1nc[nH]c1C)NC#N` [Cimetidine], for which the transfection efficiency is 1.05 ± 0.19.

As to `COC(=O)C[C@](O)(CCCC(C)(C)O)C(=O)O[C@@H]1C(OC)=C[C@]23CCCN2CCc2cc4c(cc2[C@H]13)OCO4` [Homoharringtonine], the transfection efficiency worked out at 0.0857 ± 0.15.

In the case of `O=c1[nH]c(=O)n([C@H]2C[C@H](O)[C@@H](CO)O2)cc1F` [Floxuridine], the transfection efficiency was found to be 1.01 ± 0.1.

In the case of `CNCCCN1c2ccccc2CCc2ccccc21` [Desipramine hydrochloride], the transfection efficiency was found to be 0.934 ± 0.74.

Take `COc1ccc([C@@H]2Sc3ccccc3N(CCN(C)C)C(=O)[C@@H]2OC(C)=O)cc1` [(+)-cis-Diltiazem hydrochloride]: the transfection efficiency worked out at 0.808 ± 0.2.

As for `Nc1ccc(O)c(C(=O)O)c1` [Mesalamine], the transfection efficiency amounted to 0.704 ± 0.25.
